Measurements published in the supplement of paper PMC7826260.
The other results are listed elsewhere or left out. The data describe in vitro nicking of single-stranded DNA by Rep domains for 1 h at 37 °C with 3 µM enzyme; only the middle of the 90-letter strands is printed. The score is log2 (uncut reads / reads without enzyme); strong cutting gives strongly negative numbers. There is no active / inactive call. Shares of all reads are compared; values above 0 arise when much of the pool is cut.

Legend:
Experiment in all cases: uncleaved DNA left, log2 of reads against the no-enzyme library (log2 ratio); higher = less cleavage (more negative = more Rep cleavage of the k-mer); sequences stand for … in CTCGTCCG…ACCGGAGA
[1] = system: T1, Rep nickase domain of Muscovy duck circovirus
T1 sequence (residues 1-111 of Rep, tag left off): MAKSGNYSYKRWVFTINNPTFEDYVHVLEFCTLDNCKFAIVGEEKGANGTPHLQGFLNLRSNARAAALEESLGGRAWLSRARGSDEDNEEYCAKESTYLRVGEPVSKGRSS
Description: (§1)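 A pool of 90-nt single-stranded DNAs with seven random bases just before the constant AC of the nick site (name = the seven bases) was cut by 3 µM recombinant His6-SUMO-tagged Rep nickase domain (300 nM DNA, 50 mM HEPES pH 8.0, 50 mM NaCl, 1 mM MnCl2, 1 h, 37 °C, three replicates). Uncut DNA was amplified and sequenced.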

[2] = system: T2, Rep nickase domain of banana bunchy top virus
T2 sequence (residues 1-94 of Rep, tag left off): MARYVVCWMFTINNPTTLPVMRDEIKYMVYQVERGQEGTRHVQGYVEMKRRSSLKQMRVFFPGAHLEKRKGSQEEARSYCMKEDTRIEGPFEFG
Description: as §1

[3] = system: T3, Rep nickase domain of cabbage leaf curl virus
T3 sequence (residues 1-116 of Rep, tag left off): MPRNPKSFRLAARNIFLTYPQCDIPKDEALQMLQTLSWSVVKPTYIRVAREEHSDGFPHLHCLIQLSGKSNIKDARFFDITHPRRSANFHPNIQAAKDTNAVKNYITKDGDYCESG
Description: as §1

[4] = system: T4, Rep nickase domain of chickpea chlorotic dwarf virus
T4 sequence (residues 1-124 of Rep, tag left off): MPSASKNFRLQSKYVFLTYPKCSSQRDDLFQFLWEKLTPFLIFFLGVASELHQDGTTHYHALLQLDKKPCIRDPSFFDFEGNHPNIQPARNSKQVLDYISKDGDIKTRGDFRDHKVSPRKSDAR
Description: as §1

[5] = system: T5, Rep nickase domain of faba bean necrotic yellows virus
T5 sequence (residues 1-98 of Rep, tag left off): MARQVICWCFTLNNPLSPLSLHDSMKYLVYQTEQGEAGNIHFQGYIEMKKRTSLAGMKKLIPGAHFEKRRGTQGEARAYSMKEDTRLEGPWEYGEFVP
Description: as §1

[6] = system: T6, Rep nickase domain of maize striate mosaic virus
T6 sequence (residues 1-117 of Rep, tag left off): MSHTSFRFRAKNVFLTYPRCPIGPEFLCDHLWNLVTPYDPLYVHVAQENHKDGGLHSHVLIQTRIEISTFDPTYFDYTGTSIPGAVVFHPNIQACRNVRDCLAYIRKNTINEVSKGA
Description: as §1

[7] = system: T7, Rep nickase domain of porcine circovirus 2
T7 sequence (residues 2-116 of Rep, tag left off): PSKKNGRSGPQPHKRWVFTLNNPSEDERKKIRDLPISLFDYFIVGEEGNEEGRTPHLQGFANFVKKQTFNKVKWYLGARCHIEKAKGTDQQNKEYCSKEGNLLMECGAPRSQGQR
Description: as §1

[8] = system: T8, Rep nickase domain of tomato yellow leaf curl virus
T8 sequence (residues 1-136 of Rep, tag left off): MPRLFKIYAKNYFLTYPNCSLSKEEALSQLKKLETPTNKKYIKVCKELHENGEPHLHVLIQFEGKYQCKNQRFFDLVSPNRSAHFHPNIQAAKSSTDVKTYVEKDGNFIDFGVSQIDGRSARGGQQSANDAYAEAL
Description: as §1

[9] = system: T9, Rep nickase domain of wheat dwarf virus
T9 sequence (residues 1-137 of Rep, tag left off): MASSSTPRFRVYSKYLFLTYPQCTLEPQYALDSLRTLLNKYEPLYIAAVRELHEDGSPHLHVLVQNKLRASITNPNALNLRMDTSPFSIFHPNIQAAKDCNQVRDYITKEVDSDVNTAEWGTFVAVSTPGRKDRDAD
Description: as §1

| Sequence | uncleaved DNA left (log2) [1] | uncleaved DNA left (log2) [2] | uncleaved DNA left (log2) [3] | uncleaved DNA left (log2) [4] | uncleaved DNA left (log2) [5] | uncleaved DNA left (log2) [6] | uncleaved DNA left (log2) [7] | uncleaved DNA left (log2) [8] | uncleaved DNA left (log2) [9] |
| --- | --- | --- | --- | --- | --- | --- | --- | --- | --- |
| AGGTAAA | -0.0499 | 0.0206 | 0.152 | 0.437 | -0.00363 | 0.306 | -0.00117 | 0.012 | -0.0394 |
| ACCTGAA | 0.0185 | 0.0646 | -0.0219 | 0.0456 | 0.0913 | -0.326 | 0.0782 | 0.114 | 0.0592 |
| TTATTTT | -3.26 | -0.259 | -3.45 | -3.1 | 0.0793 | -1.8 | -3.29 | -0.0236 | -2.96 |
| AGTCTAT | -0.14 | -0.282 | -0.0185 | -0.336 | -0.0888 | -0.0634 | -3.36 | -0.152 | -0.15 |
| ACCTTTT | -2.32 | -0.407 | -0.362 | -2.69 | -0.0607 | -1.01 | -3.38 | 0.0602 | -0.142 |
| CGGCAGC | 0.0318 | -0.0175 | 0.192 | 0.741 | 0.0924 | 0.678 | 0.00586 | -0.0193 | -0.0488 |
| GATGACA | 0.0336 | 0.0358 | 0.498 | 0.98 | -0.00223 | 1.63 | 0.107 | 0.0634 | 0.162 |
| GGCTCAA | 0.0334 | 0.0737 | 0.42 | 1.12 | 0.0128 | 1.67 | 0.0535 | 0.0512 | 0.0797 |
| TCGCTCG | 0.0125 | 0.0902 | 0.434 | 2.23 | 0.101 | 1.1 | 0.108 | -0.00351 | 0.0575 |
| CAATCCA | -0.234 | 0.0716 | -2.18 | -2.46 | 0.0487 | -1.24 | -0.955 | 0.0344 | -0.905 |
| TCTTGCA | 0.0491 | 0.0196 | -0.72 | -0.718 | 0.012 | -1.17 | 0.137 | 0.129 | -0.0167 |
| GCTCATA | 0.122 | 0.0947 | 0.105 | 0.264 | 0.13 | 0.317 | 0.0893 | 0.0877 | 0.0607 |
| GTTAACG | 0.0951 | 0.0232 | -0.44 | -0.523 | 0.0359 | -0.734 | 0.162 | -0.00696 | -0.0206 |
| GGACTAC | 0.0595 | 0.187 | 0.93 | 1.92 | 0.0441 | 2.28 | 0.128 | 0.206 | 0.164 |
| CGCGCCT | -0.112 | -0.0174 | -0.0935 | -0.513 | 0.0316 | -0.138 | -0.0777 | -0.0178 | -0.00279 |
| ATCACCC | -0.0716 | 0.0272 | -0.0958 | 0.0286 | -0.0319 | -0.0956 | -0.19 | -0.122 | -0.106 |
| AAGCAGT | 0.0319 | -0.0939 | 0.0721 | 0.157 | 0.0805 | 0.282 | -2.21 | -0.112 | 0.0294 |
| ACTTACG | -0.0509 | 0.0699 | -0.723 | 0.218 | -0.0377 | -0.598 | 0.0452 | 0.0148 | -0.0698 |
| ACATACT | -3.29 | -0.203 | -0.873 | -2.97 | 0.0798 | -0.982 | -3.67 | -0.0585 | -0.159 |
| GGTCGGG | 0.045 | -0.109 | 0.519 | 0.957 | -0.0219 | 1.13 | 0.171 | 0.0847 | 0.0735 |
| GCTTTCC | -0.0295 | -0.0474 | 0.197 | 0.429 | -0.125 | 0.367 | 0.0182 | -0.0691 | 0.00321 |
| ACGTGGC | -0.0245 | -0.118 | -0.513 | -0.589 | 0.0233 | -1.26 | 0.0663 | -0.0605 | -0.171 |
| ACGCTCT | 0.118 | 0.0651 | -0.156 | -1.84 | 0.0547 | -0.569 | -0.0743 | -0.0042 | 0.00167 |
| GGTCACC | 0.12 | 0.078 | 0.472 | 1.14 | -0.101 | 1.77 | 0.0457 | 0.106 | 0.146 |
| ACTCCCT | -0.103 | -0.0507 | -0.18 | -1.83 | 0.0604 | -0.343 | -0.52 | -0.102 | 0.0314 |
| TCGATGA | 0.125 | -0.212 | 0.0501 | 0.299 | 0.083 | 0.175 | -0.0027 | -0.0828 | -0.116 |
| TTGCACA | -0.121 | 0.0678 | -0.26 | -0.811 | 0.0692 | -0.968 | 0.134 | 0.13 | 0.00351 |
| AACCAAC | -0.0171 | 0.0936 | -0.216 | -1.4 | -0.0647 | -0.702 | -0.185 | -0.106 | 0.00844 |
| GAAGTGA | 0.171 | 0.0234 | -0.0127 | 0.322 | 0.0666 | -0.163 | 0.121 | 0.02 | 0.0647 |
| AAAAGTG | 0.026 | 0.0338 | -0.658 | -0.749 | -0.00611 | -1.03 | 0.144 | 0.0701 | -0.00823 |
